Experimental data taken from the domain aggregation screens of Martell et al. (2025).

Assay: soluble fraction after stress (log2 fold change); higher = more stays soluble; pooled small domains, quantitative proteomics
Settings: stress: 50 degC
Summary of the method: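 Quantitative proteomics served as the high-throughput read-out for pooled custom libraries of small protein domains. Each was stressed at 50°C. Aggregation propensity is expressed as the base-two log fold change in soluble protein after stress. A higher value means a larger share of the protein remains in solution.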

Sequence | soluble fraction (log2)
HMQVDDAELIDLVEMEIRELLTSYEFPGDTIPIVKGSALAALEGRDDEIGKNSILELMKAVDESIPQPT | -0.0254
HMPREEGIVKWFNRTKGFGFIIRENGDEIFVHHRSVSAHGGQRANLSDGQRVTFTVVERSKGWQAEDVDP | -2.25
HMGIYRHFKGGLYEVVGTAKHSETEEELIVYRALYGDYGLWARPAAMFTETVEIDGEPLPRFSLI | -0.495
HMQSHRFQRLQNDLANRIAQTPPSERLPSEPQLAQELGVSRATLREAMRAFEAQGLIRRKQGAGTFVVG | 0.225
HMKYKDYYAVLGVPRDADLDQIKKAYRKLARQFHPDVSKEPNAEAQFKEAGEAYATLKDAEKRAAYDQLG | 0.22
HMADYYSVLGVERDATEEEIKRAYRKMSRKYHPDLAGPQFEEKFKEVNTAYEVLSDPEKRRMFDMGVDPN | 0.13
HMDQVDDEELLDLVELEVRELLSAYEFPGDDIPIIKGSALAALEGGDEATGKNAILELMKAVDDYVPQPE | -0.138
HMKAAYITIHDKIKDDIDLGIWKIGQRLPSERDLADEFGVSRMTLRQAITLLVEEGVLTRKVGSGTYVAS | -3.03
HMSDYYSVLGVSRDATGEEIKRAYRKLARELHPDVNPDPATNEKFKEVTAAYEVLSDPSKRQMYDLGGDPR | 0.0592
HMVDYYEVLGVRVDASDSEVKRAYRRLIVENHPDKLIAQGLPQEFIDLANEKMGAINSAYDMIKKERRI | -0.445
HMPLHDIGKVGIPDHILLKPGKLTPAEWEVMKTHARLGAAAIEQAEREATRPVEFLVLAKEIAHHHHER | 0.337
HMNDDYYAILGVSRDADQSEIKKAYRKKARETHPDYGGDEEAFKAVSVAYETLSDPEKRRMYDIGGPDAAR | 0.0172
